# From PubChem BioAssay AID686979 (National Center for Advancing Translational Sciences (NCATS), 2013)
# Values joined by “and” are separate entries in the source; they are usually repeats but may differ in a detail not shown here. Identical values can stand only once. The whole screen tested about 420,000 compounds, of which about 50,000 (12%) were called active. The inconclusive results got no clear call from the source; some entries with a clear call stand among them for comparison. The call rests on the fitted dose curve; in most records, active means well fitted inhibition curve with a large enough effect; inconclusive means small, poorly fitted or top-dose-only effect; inactive means flat fitted curve, though single readings scatter. No potency is given beside an inconclusive call; the fits are too rough.
# Assay: qHTS for Inhibitors of human tyrosyl-DNA phosphodiesterase 1 (TDP1): qHTS in cells in presence of CPT; further: nearly all actives have a fitted effect of over 55% in size
# Settings: chicken DT40 Tdp1-/-;hTDP1 cells + 20 nM CPT, ATP luminescence, 48 h; activity change, negative = growth inhibition: at 46.2 µM (top of the series) unless noted
# Method in brief: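 Cell growth measured by CellTiter-Glo luminescence after a minimum 48 h, 37 C compound exposure with 20 nM CPT in Tdp1-knockout DT40 cells stably expressing hTDP1, seeded 400/well; qHTS titration format.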
# On the % scale 0 is the no-effect control and ±100 the full control effect; potency means the concentration at half of the fitted maximal effect; tags describe the fitted curve by direction and shape.
Compound,Potency,"activity change, negative = growth inhibition"
Cc1ccc2c(c1)CC1(CN2C)C(=O)NC(=O)N(C(C)C)C1=O (stereo unspecified),active: 18.4 µM,–
Cc1onc(-c2ccccc2)c1C(=O)Nc1ccc(S(=O)(=O)N2CCCC2)cc1,"inconclusive [inhibitor, single point]",–
CC(C)(C)C(=O)N1Cc2cc(-c3ccccc3)ccc2-n2nncc2C1,active: 16.4 µM,–
CCCCC(=O)N/N=C/c1c(O)n(CCC2=CCCCC2)c(=O)[nH]c1=O,"inconclusive [inhibitor, single point]",–
Cc1cccc(N2CCN(C(=O)C34CC5CC(CC(C5)C3)C4)CC2)c1C,"inconclusive [inhibitor, single point]",–
N#Cc1cc2c(nc1SCC(=O)Nc1ccc(OC(F)(F)F)cc1)C1CCN2CC1,"inconclusive [inhibitor, single point]",–
c1ccc(N2CCCC3(CCNCC3)C2)cc1,"inconclusive [inhibitor, single point]",–
c1ccc(-c2ccncc2)cc1,inactive,–
O=C(NC(c1cccnc1)C(F)(F)F)c1cnn(-c2nccc(-c3cccs3)n2)c1C1CC1 (stereo unspecified),"inconclusive [inhibitor, single point]",–
CN(C)c1ccc(NC(=O)CSc2nc(-c3ccco3)cc(C(F)(F)F)n2)cc1,"inconclusive [inhibitor, partial curve]",–
Cc1c(CCN)ccc2c1[nH]c1ccccc12,"inconclusive [inhibitor, partial curve]",–
CC(=O)OC1=CC[C@H]2[C@@H]3CC[C@H]4C[C@H](OC(C)=O)[C@@H](OC(C)=O)C[C@]4(C)[C@H]3CC[C@]12C,active: 14.6 µM,–
COC(=O)C1=C(c2cccc(OCc3ccccc3)c2)C[C@@H]2CC[C@H]1N2C(=O)NCCOc1ccccc1,"inconclusive [inhibitor, single point]",–
CN1CCc2c(C#N)c(Cl)nc(Cl)c2C1,"inconclusive [inhibitor, single point]",–
CCC(=O)c1ccc(OCC(=O)N2CCN(CC(=O)Nc3ccc(C)cc3)CC2)cc1,"inconclusive [inhibitor, single point]",–
COc1ccc2[nH]c(C)c(CCNCc3cc(OC)c4c(c3)OCO4)c2c1,"inconclusive [inhibitor, single point]",–
CC(C)(OOC1(c2ccccc2)NC(=O)c2ccccc21)c1ccccc1 (stereo unspecified),"inconclusive [inhibitor, single point]",–
CCC(CO)(C(=O)OC1C[N+]2(C)CCC1CC2)c1ccccc1 (stereo unspecified),inactive,–
COC(=O)C1=C(c2ccc(F)cc2OCc2ccccc2)C[C@@H]2CC[C@H]1N2C(=O)NC1CC1,active: 16.4 µM,–
Cc1ccc2oc(-c3ccc(Cl)cc3)c(O)c(=O)c2c1,active: 20.6 µM,–
COc1ccc(-c2c(C)nn3c(-c4ccccc4)cc(C)nc23)cc1OC,"inconclusive [inhibitor, single point]",–
COC(=O)c1c(C)n(Cc2ccc3c(c2)OCO3)c2ccc(O)cc12,"inconclusive [inhibitor, single point]",–
CN1CCC(N(C)Cc2cccnc2)CC1,inactive,–
CC(=NCc1ccco1)c1c(O)n(-c2ccccc2C)c(=O)[nH]c1=O,inactive,–

Compound,Potency,"activity change, negative = growth inhibition"
C[C@@H]1CN([C@@H](C)CO)C(=O)CCCn2nncc2CO[C@H]1CN(C)C(=O)Oc1ccc2ccccc2c1,inactive,–
O=S1(=O)N(Cc2ccccc2)CCCN1Cc1cccc(Cl)c1,inactive,–
Cc1ccc(C(=O)n2cc(CCN3CCS(=O)(=O)CC3)c3ccccc32)cc1,"inconclusive [inhibitor, partial curve]",–
Cc1cccn2c(=O)c3cc(C(=O)N4CCC5(CC4)OCCO5)n(C)c3nc12,active: 1.16 µM,–
COC(=O)C1=C(c2ccc(F)cc2F)C[C@@H]2CC[C@H]1N2C(=O)NCc1ccco1,inactive,–
Cc1ccc(CC2C(=O)N(C)C(=O)N(C)C2=O)s1,"inconclusive [inhibitor, single point]",–
CCOc1cc2c(cc1OCC)-n1cccc1C(c1ccc(F)cc1)NC2 (stereo unspecified),"inconclusive [inhibitor, single point]",–
COc1ccc(NC(=O)Cn2c(=O)c3cccn3c3ccccc32)cc1Cl,"inconclusive [inhibitor, single point]",–
COc1ccc(OCC(=O)N2CCN(C3CCC(c4ccccc4)CC3)CC2)cc1 (stereo unspecified),"inconclusive [inhibitor, single point]",–
O=C(c1cccnc1)c1cc2ccccc2[nH]1,inactive,–
O=c1c(C=NCCN2CCNCC2)c(O)n(C2CCCCC2)c(=O)n1C1CCCCC1,active: 16.4 µM,–
CN(C)c1ccc(N=O)cc1,active: 0.562 µM,–
CN1C(=O)C(=Cc2coc3ccccc3c2=O)C(=O)N(C)C1=O,"inconclusive [inhibitor, single point]",–
COC(=O)C1=C(c2ccc(OC)c(OC)c2)C[C@@H]2CC[C@H]1N2C(=O)NCCOc1ccccc1,"inconclusive [inhibitor, single point]",–
CCCCCCOc1ccc(CN2CCN(C)CC2)cc1,active: 17.8 µM,–
CC1=CC2OC3CC4OC(=O)C=CC=CC(=O)OCCC(C)C(O)C(=O)OCC2(CC1)C4(C)C31CO1 (stereo unspecified),active: 0.0231 µM,–
COC(=O)C1=C(c2ccc(OCc3ccccc3)cc2)C[C@@H]2CC[C@H]1N2C(=O)NCCc1ccc(F)cc1,active: 20.6 µM,–
COc1ccc(C2=C(C(C)=O)Sc3nnc(-c4ccc(Cl)cc4)n3N2C(C)=O)cc1OC,active: 4.11 µM,–
Cc1ccc(S(=O)(=O)N(C)C[C@H]2Oc3c(NC(=O)Nc4cccc5ccccc45)cccc3C(=O)N([C@@H](C)CO)C[C@@H]2C)cc1,active: 16.4 µM,–
CCCCn1c(O)c(C(C)=NCCc2ccccc2)c(=O)[nH]c1=O,"inconclusive [inhibitor, single point]",–
CCOC(=O)N1CCN(C(=O)c2ccc3c(=O)n(CCC4=CCCCC4)c(=S)[nH]c3c2)CC1,"inconclusive [inhibitor, single point]",–
CCCN(CCC)c1c([N+](=O)[O-])cc(S(N)(=O)=O)cc1[N+](=O)[O-],"inconclusive [inhibitor, single point]",–
CCOC(=O)[C@@H]1[C@H]2COc3ccc(Br)cc3[C@H]2N2C(=O)N(c3cccc(C)c3)C(=O)[C@]12C,"inconclusive [inhibitor, single point]",–
COC(=O)C1=C(c2cccc(OC)c2OC)C[C@@H]2CC[C@H]1N2C(=O)NCc1ccc(C(F)(F)F)cc1,inactive,–

Compound,Potency,"activity change, negative = growth inhibition"
COc1ccccc1NC(=O)c1cn(CCC#N)nc1-c1ccc(F)cc1,inactive,–
O=c1c2ccccc2nc(/C=C\c2ccc(F)cc2)n1-c1ccccc1F,active: 23.1 µM,–
c1ccc(CCCN2CCN(CCOC(c3ccccc3)c3ccccc3)CC2)cc1,active: 6.68 µM and active: 5.17 µM and active: 9.2 µM,–
COc1ccc(OCC(=O)N2CCN(Cc3cc(=O)n4nc(-c5ccccc5C)sc4n3)CC2)cc1,active: 14.6 µM,–
C[C@@H](C(=O)OC1C[C@H]2CC[C@@H](C1)N2C)c1ccc(Br)cc1 (stereo partly specified),active: 29.9 µM,–
CN1C(=O)N(C)C(=O)C2(Cc3c(ccc4ccccc34)N(C)C2)C1=O,–,inconclusive: -30.4% [inhibitor]
CCOP(=O)(OCC)C(NC(=O)CC(C)C)C(Cl)(Cl)Cl (stereo unspecified),inactive,–
Oc1c(C(Nc2cccnc2)c2ccccc2F)ccc2cccnc12 (stereo unspecified),"inconclusive [inhibitor, single point]",–
Cc1ccc(-c2cc(-c3ccccc3)cc(-c3ccccc3)[n+]2-c2ccccc2C(=O)O)cc1,active: 9.2 µM,–
CN(C)CCc1c[nH]c2cccc(OP(=O)(O)O)c12,inactive,–
Cc1c(I)c(=O)n(-c2ccccc2)n1C,"inconclusive [inhibitor, single point]",–
CC(N)Cc1c[nH]c2c1ccc1ccccc12 (stereo unspecified),"inconclusive [inhibitor, single point]",–
Cc1cccc(NC(=O)Cn2cc(C(=O)c3ccccc3)c3ccccc32)c1,"inconclusive [inhibitor, single point]",–
O=c1c2ccccc2nc(/C=C/c2ccc(O)cc2)n1-c1ccc(O)cc1,"inconclusive [inhibitor, single point]",–
Cc1ccccc1CN1CCc2nc(N3CCN(c4ccccn4)CC3)ncc2C1,"inconclusive [inhibitor, partial curve]",–
CCS(=O)(=O)C(C)(C)S(=O)(=O)CC,inactive,–
NC(Cc1ccc(F)cc1)c1csc(Nc2cnccn2)n1 (stereo unspecified),"inconclusive [inhibitor, single point]",–
Cc1cc(=O)oc2c(C)c(OCC(=O)N3CCN(Cc4ccc5c(c4)OCO5)CC3)ccc12,inactive,–
COC(=O)C1=C(c2ccc(Cl)c(C(F)(F)F)c2)C[C@@H]2CC[C@H]1N2C(=O)NC1CCCCC1,active: 13 µM,–
O=C(Cc1ccc(N(CCCl)CCCl)cc1)NC(Cc1ccc(Cl)cc1)C(=O)O (stereo unspecified),"inconclusive [inhibitor, single point]",–
CCOC(=O)c1cccc(-[n+]2c(-c3ccccc3)cc(-c3ccccc3)cc2-c2ccccc2)c1,active: 1.64 µM,–
Cc1oc2ccc(O)c(CN3CCCCCC3)c2c1C(=O)Nc1cccc(Cl)c1C,active: 3.66 µM,–
CN1CCCC(C(=O)c2ccc(-c3ccccc3)cc2)C1 (stereo unspecified),"inconclusive [inhibitor, single point]",–
